# Laboratory results as given in PubChem BioAssay AID504339 (National Center for Advancing Translational Sciences (NCATS), 2011).
# Several values for one entry are separate records, joined by “and”; a condition that tells them apart may be missing. Equal entries are not always repeated. Screen size: about 390,000 compounds; about 17,000 (4.4%) were called active. Inconclusive results, whose numbers are uncertain, are shown with a selection of clear calls. Calls follow the shape of the dose curve; as a rule, active = well fitted inhibition curve with a large enough effect; inconclusive = small, poorly fitted or top-dose-only effect; inactive = no such curve, though single readings can be large or run the other way. Potencies beside an inconclusive call are fits to weak or partial responses and may not hold up.
# Target: Lysine-specific demethylase 4A (Homo sapiens) (UniProt O75164)
# Sequence of UniProt O75164 (O75164 whole entry, looked up, the tested form may be a part): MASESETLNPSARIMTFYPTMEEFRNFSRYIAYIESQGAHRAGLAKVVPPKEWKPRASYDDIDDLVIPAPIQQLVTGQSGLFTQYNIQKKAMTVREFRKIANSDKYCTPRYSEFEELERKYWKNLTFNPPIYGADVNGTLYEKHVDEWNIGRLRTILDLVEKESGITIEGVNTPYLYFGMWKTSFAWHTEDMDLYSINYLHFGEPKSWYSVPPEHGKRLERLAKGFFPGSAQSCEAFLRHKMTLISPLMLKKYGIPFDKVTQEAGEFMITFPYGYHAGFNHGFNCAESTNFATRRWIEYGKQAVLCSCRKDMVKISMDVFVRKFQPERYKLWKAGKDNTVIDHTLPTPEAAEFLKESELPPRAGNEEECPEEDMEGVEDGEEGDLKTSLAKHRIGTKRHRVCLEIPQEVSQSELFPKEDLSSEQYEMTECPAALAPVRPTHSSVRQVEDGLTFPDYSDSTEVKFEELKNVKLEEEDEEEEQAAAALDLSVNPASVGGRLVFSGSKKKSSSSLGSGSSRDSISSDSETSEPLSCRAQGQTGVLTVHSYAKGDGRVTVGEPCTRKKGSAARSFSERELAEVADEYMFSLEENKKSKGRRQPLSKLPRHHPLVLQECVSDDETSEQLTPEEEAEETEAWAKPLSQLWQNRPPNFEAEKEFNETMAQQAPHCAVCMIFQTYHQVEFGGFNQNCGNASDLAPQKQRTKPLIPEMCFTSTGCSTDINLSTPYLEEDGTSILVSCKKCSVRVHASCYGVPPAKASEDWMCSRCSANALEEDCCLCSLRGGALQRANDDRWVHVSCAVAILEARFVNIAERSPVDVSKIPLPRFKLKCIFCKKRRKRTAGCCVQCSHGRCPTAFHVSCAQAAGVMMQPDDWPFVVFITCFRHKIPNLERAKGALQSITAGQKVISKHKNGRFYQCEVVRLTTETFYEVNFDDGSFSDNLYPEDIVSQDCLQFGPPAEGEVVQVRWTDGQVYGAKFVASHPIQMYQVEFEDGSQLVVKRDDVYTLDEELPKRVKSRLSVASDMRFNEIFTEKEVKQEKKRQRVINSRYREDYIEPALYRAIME
# Experiment: qHTS Assay for Inhibitors of JMJD2A-Tudor Domain; also: nearly all actives have a fitted effect of over 50% in size
# Settings: AlphaScreen JMJD2A-Tudor / H3K4me3 peptide binding; activity change, negative = inhibition: at 114 µM (top of the series)
# % is scaled to controls: 0 for no effect and ±100 for the full control effect; potency is read from the fitted curve at half-maximal effect; tags tell the direction and shape of the fitted curve.
Compound,Potency,"activity change, negative = inhibition"
O=C(CN1CCOCC1)Nc1nc2ccc([N+](=O)[O-])cc2s1,active: 10 µM,–
CCOc1ccc(NC(=O)NCc2ccc3c(c2)OCO3)cc1,–,inactive: -10.6%
CCNC(=S)N1CCN(c2nc(-c3cccc(OC)c3)cs2)CC1,"inconclusive: 56.2 µM [inhibitor, partial curve]",–
Cc1noc(C)c1COc1ccc(C(=O)N2CCCC(C(F)(F)F)C2)cc1 (stereo not drawn),–,inactive: 2.21%
COc1ccc(CNC(=O)COC(=O)c2cccnc2Nc2cccc(C(F)(F)F)c2)cc1,"inconclusive: 79.4 µM [inhibitor, partial curve]",–
COc1cccc(C(=O)CN2CCN(S(=O)(=O)c3cccc([N+](=O)[O-])c3)CC2)c1,–,inactive: -15.6%
CN(Cc1ccccc1)Cc1nc2c([nH]1)c(=O)n(C)c(=O)n2C,"inconclusive: 89.1 µM [inhibitor, single point]",–
CCC(=O)Nc1cc(-c2nnc(OC)c3ccccc23)ccc1N1CCOCC1,"inconclusive: 100 µM [inhibitor, single point]",–
C[C@@H]1COC(=O)[C@@H](CC(=O)OC(C)(C)C)C/C=C\C[C@H](CC(=O)NCCO)C(=O)N1,–,inactive: -30.3%
Cc1ccc(CN2CCN(CC(=O)N/N=C/c3ccc(C)o3)CC2)cc1,–,inactive: -22.4%
COc1cc(C(=O)Nc2ccc(N3CCCS3(=O)=O)cc2)c([N+](=O)[O-])cc1OC,–,inactive: -20.5%
O=C(NCC(=O)N(c1cccnc1)C(C(=O)NC1CCCCC1)c1ccccc1F)c1ccco1 (stereo not drawn),"inconclusive: 0.794 µM [inhibitor, full curve]",–
Cc1ccc(Cl)cc1NC(=O)C1CCN(C(=O)c2cnn(-c3ccccc3)c2-n2cccc2)CC1,–,inactive: -9.4%
CCCCOP(=O)(OCCCC)C1(NS(=O)(=O)c2ccccc2)C=CC(=O)c2ccccc21 (stereo not drawn),"inconclusive: 17.8 µM [inhibitor, full curve]",–
Cc1cc(NC(=O)CN2C(=O)/C(=C/c3cccc(Br)c3)SC2=S)no1,–,inactive: -4.2%
COc1cc(/C=N\Nc2nc(-c3cccs3)c(NC(C)=O)s2)ccc1O,active: 25.1 µM,–
Cc1nc(CS(=O)(=O)c2ccccc2)cc(N2CCOCC2)n1,"inconclusive: 7.08 µM [inhibitor, single point]",–
COc1ccccc1N1CCN(C(=O)c2ccc3nc(-c4ccco4)c(-c4ccco4)nc3c2)CC1,"inconclusive: 28.2 µM [inhibitor, full curve]",–
Brc1ccc2c(c1)C(c1cccs1)=NNC(c1cccnc1)=N2,–,inactive: -25.4%
CCOC(=O)CSc1nnc2c3ccccc3n(C)c2n1,"inconclusive: 12.6 µM [inhibitor, partial curve]",–
COc1ccc(C2c3ccc4ccccc4c3Oc3ncn(CCO)c(=N)c32)cc1 (stereo not drawn),"inconclusive: 44.7 µM [inhibitor, partial curve]",–
CC(=O)N1CCc2c(sc(NC(=O)CCS(=O)(=O)c3ccccc3)c2C#N)C1,–,inactive: -9.72%
Cc1ccc(Sc2ncccc2COC(=O)Nc2ccccc2)cc1,–,inactive: 21.4%

Compound,Potency,"activity change, negative = inhibition"
Cc1nc(Nc2nc3ccccc3o2)nc2c1CCCC2,"inconclusive: 89.1 µM [inhibitor, partial curve]",–
COc1cc(S(=O)(=O)Nc2ccc(C)cc2)ccc1N=Cc1c(C)[nH]n(-c2ccc(C)cc2)c1=O,"inconclusive: 14.1 µM [inhibitor, full curve, poor fit]",–
Cc1nc(-c2coc3cc(C)c(N=O)c(O)c3/c2=N\N)cs1,–,inactive: -24.8%
CCN(CC)c1ccc(NC(=O)CN2CCN(S(=O)(=O)c3cc(Cl)ccc3OC)CC2)cc1,active: 28.2 µM and active: 39.8 µM,–
COc1ccc(NC(=O)CSc2nc(-c3ccccc3)[nH]c2-c2ccccc2)cc1OC,"inconclusive: 15.8 µM [inhibitor, full curve, poor fit]",–
COc1cccc(NC(=O)c2sc3ncn(CC(=O)N4CCN(c5ccccn5)CC4)c(=O)c3c2C)c1,"inconclusive: 15.8 µM [inhibitor, full curve, poor fit]",–
Nc1cc2c(cc1O)CCCC2,active: 2.51 µM,–
O=C1C(=NO)CCc2ccccc21,"inconclusive: 44.7 µM [inhibitor, partial curve]",–
S=c1[nH]nc(-c2ccncc2)n1/N=C/C(Cl)=C\c1ccccc1,active: 17.8 µM,–
O=C(O)CCc1ccc(-c2ccc(Br)cc2)n1-c1cccc(O)c1,"inconclusive: 28.2 µM [inhibitor, full curve]",–
CCOC(=O)c1ccc(NC(=O)CC2S/C(=N/N=C3/NC(=O)CS3)NC2=O)cc1 (stereo not drawn),"inconclusive: 89.1 µM [inhibitor, partial curve]",–
CC(/C=C1\SC(=O)N(CCCC(=O)O)C1=O)=C\c1ccccc1,–,inactive: -14.5%
C#CC(=O)N(c1cc(OC)ccc1OC)C(C(=O)NC1CCCC1)c1cccs1 (stereo not drawn),–,inactive: -19.3%
O=C(Nc1cccc(S(=O)(=O)N2CCCCC2)c1)c1ccccn1,"inconclusive: 17.8 µM [inhibitor, partial curve]",–
COc1ccc(-n2cccc2/C=C/[N+](=O)[O-])cc1,active: 44.7 µM,–
COC(=O)C1=C(C)N(Cc2ccccc2)C(=NCCc2cccnc2)N[C@H]1c1ccc(Br)cc1,active: 28.2 µM,–
CC(C)NC(=O)N(C)C[C@H]1Oc2ccc(NC(=O)NC3CCCCC3)cc2C(=O)N([C@H](C)CO)C[C@@H]1C,–,inactive: -16.8%
CCOC(=O)c1ccc(NC2=CC(=O)C(=O)c3ccccc32)cc1,"inconclusive: 56.2 µM [inhibitor, partial curve]",–
Cc1ccc(C2C(C#N)=C3N=C(N)c4ccccc4N3C3=C2C(=O)CCC3)cc1 (stereo not drawn),"inconclusive: 56.2 µM [inhibitor, partial curve]",–
COC(=O)CCCC1=CC2=C(c3ccccc3)C(=O)C(C)(OC(=O)C3CCCC3)C(=O)C2=CN1Cc1ccc2c(c1)OCO2 (stereo not drawn),"inconclusive: 35.5 µM [inhibitor, partial curve]",–
CCOC(=O)CCC(=O)Nc1cc(S(=O)(=O)N2CCOCC2)ccc1N1CCCCC1,–,inactive: -9.4%
CCOc1ccc(C(=O)OC(C)CN2CCN(C)CC2)cc1 (stereo not drawn),active: 79.4 µM,–
O=C(CSc1nnc2c(n1)[nH]c1ccc(F)cc12)NCc1ccc(F)cc1,"inconclusive: 79.4 µM [inhibitor, single point]",–

Compound,Potency,"activity change, negative = inhibition"
CCN1CCN(c2ccc(S(=O)(=O)N3CCCCC3)cc2NC(=O)/C=C/c2cccc(OC)c2OC)CC1,"inconclusive: 44.7 µM [inhibitor, full curve]",–
CCC(C)C(=O)Nc1nnc(CCc2ccccc2)s1 (stereo not drawn),active: 70.8 µM,–
O=C(COc1ccc([N+](=O)[O-])cc1)Nc1nnc(-c2cccnc2)s1,"inconclusive: 63.1 µM [inhibitor, partial curve, poor fit]",–
Cc1cc(OCc2n[nH]c(=S)n2-c2ccccc2)ccc1Cl,"inconclusive: 79.4 µM [inhibitor, single point]",–
Cc1ccc(NC(=O)CNc2cc(S(=O)(=O)N3CCOCC3)ccc2NCC2CCCO2)cc1F (stereo not drawn),"inconclusive: 50.1 µM [inhibitor, partial curve]",–
Cc1cc(C(=O)C(=O)N(C)C)c(C)n1-c1ccc(Cl)c(Cl)c1,"inconclusive: 56.2 µM [inhibitor, partial curve, poor fit]",–
CCOC(=O)c1ccccc1NC(=O)NCc1cccn1Cc1ccc(F)cc1,–,inactive: -0.336%
Cc1ccccc1Cn1ccc(NC(=O)c2cnn3c(C(F)(F)F)cc(-c4ccco4)nc23)n1,"inconclusive: 44.7 µM [inhibitor, partial curve]",–
O=C(/C=C/c1ccccc1)N/C(=C/c1ccccc1)C(=O)Nc1ccccc1O,"inconclusive: 50.1 µM [inhibitor, partial curve]",–
COc1cc(C(CCN2CCOCC2)c2c(OC)cc(OC)c3c(-c4ccccc4)cc(=O)oc23)cc(OC)c1OC (stereo not drawn),active: 79.4 µM,–
CCN(Cc1ccccc1)c1ccc(/C=C(\C#N)c2ccccn2)cc1,–,inactive: 114%
O=C(Nc1ccnn1C1CCN(C(=O)CCc2ccc(F)cc2)CC1)C1CCOC1 (stereo not drawn),–,inactive: -12.4%
COc1ccc(N=C2C(=Nc3ccc(OC)cc3)N(c3ccc(OC)cc3)C(=S)N2c2ccccc2)cc1,"inconclusive: 2.82 µM [inhibitor, full curve]",–
Cc1cccnc1NC(=S)Nc1ccc(Br)cc1Cl,"inconclusive: 56.2 µM [inhibitor, partial curve, poor fit]",–
C#CCOCCOCCOCCNc1nc(N2CCN(C(=O)CCCCCCCCCCNC(=O)[C@H]([C@@H](C)CC)n3cc(CCCCCN)nn3)CC2)nc(N2CCN(C(=O)CCCCCCCCCCNC(=O)[C@H](CO)n3cc(CCCCCN)nn3)CC2)n1,"inconclusive: 56.2 µM [inhibitor, partial curve]",–
CCOC(=O)N1CCN(S(=O)(=O)c2ccc(C(=O)N(CCN(CC)CC)c3nc4c(C)cccc4s3)cc2)CC1,"inconclusive: 17.8 µM [inhibitor, full curve]",–
O=C(CCc1ccc(O)c(O)c1)N/N=C/c1cc2c(cc1[N+](=O)[O-])OCO2,active: 39.8 µM,–
CCN1C(=O)/C(=C2\C=Cc3cc(C)ccc3N2CC)OC1=S,"inconclusive: 8.91 µM [inhibitor, partial curve]",–
Cc1nc2ccccc2c(=O)n1CCCn1ccnc1,"inconclusive: 56.2 µM [inhibitor, partial curve]",–
CCCc1nn2c(=O)cc(COC(=O)c3ccc(NC(=O)CCc4ccccc4)cc3)nc2s1,"inconclusive: 63.1 µM [inhibitor, partial curve, poor fit]",–
CCc1ccc2oc(-c3cccc(NC(=O)c4cc5ccccc5o4)c3)nc2c1,–,inactive: -8.17%
Cc1ccc(C(=O)CSc2ncc3c(n2)-c2ccccc2N(Cc2ccc(Cl)cc2)S3(=O)=O)cc1,–,inactive: -1.3%
